The inconclusive results got no clear call from the source; some entries with a clear call stand among them for comparison. For some assays here: Potencies of inconclusive entries are left out as doubtful fits. Active and inactive are the calls of the source. Unless noted, calls follow the shape of the dose curve; as a rule, active = well fitted curve in the direction sought with a large enough effect; inconclusive = small, poorly fitted or top-dose-only effect, or another doubt; inactive = no such curve, though single readings can be large; an effect the other way counts as inactive or inconclusive.
Assays:
[1] = target: ATPase family AAA domain-containing protein 5 (Homo sapiens) (UniProt Q96QE3); test: qHTS screen for small molecules that inhibit ELG1-dependent DNA repair in human embryonic kidney (HEK293T) cells expressing luciferase-tagged ELG1: Hit Confirmation using MMS Stimulated ELG1 (AID 624249); also: nearly all actives have a fitted effect of over 60% in size; also: potency is read from the fitted curve at half-maximal effect;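 as to activity change, negative = inhibition: cells co-treated with MMS at 10 µM final alongside compound; luminescence of ELG1-luciferase fusion read with Amplight reagent; % is scaled to controls: 0 for no effect and ±100 for the full control effect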
Sequence of UniProt Q96QE3 (Q96QE3 whole entry, looked up, the tested form may be a part): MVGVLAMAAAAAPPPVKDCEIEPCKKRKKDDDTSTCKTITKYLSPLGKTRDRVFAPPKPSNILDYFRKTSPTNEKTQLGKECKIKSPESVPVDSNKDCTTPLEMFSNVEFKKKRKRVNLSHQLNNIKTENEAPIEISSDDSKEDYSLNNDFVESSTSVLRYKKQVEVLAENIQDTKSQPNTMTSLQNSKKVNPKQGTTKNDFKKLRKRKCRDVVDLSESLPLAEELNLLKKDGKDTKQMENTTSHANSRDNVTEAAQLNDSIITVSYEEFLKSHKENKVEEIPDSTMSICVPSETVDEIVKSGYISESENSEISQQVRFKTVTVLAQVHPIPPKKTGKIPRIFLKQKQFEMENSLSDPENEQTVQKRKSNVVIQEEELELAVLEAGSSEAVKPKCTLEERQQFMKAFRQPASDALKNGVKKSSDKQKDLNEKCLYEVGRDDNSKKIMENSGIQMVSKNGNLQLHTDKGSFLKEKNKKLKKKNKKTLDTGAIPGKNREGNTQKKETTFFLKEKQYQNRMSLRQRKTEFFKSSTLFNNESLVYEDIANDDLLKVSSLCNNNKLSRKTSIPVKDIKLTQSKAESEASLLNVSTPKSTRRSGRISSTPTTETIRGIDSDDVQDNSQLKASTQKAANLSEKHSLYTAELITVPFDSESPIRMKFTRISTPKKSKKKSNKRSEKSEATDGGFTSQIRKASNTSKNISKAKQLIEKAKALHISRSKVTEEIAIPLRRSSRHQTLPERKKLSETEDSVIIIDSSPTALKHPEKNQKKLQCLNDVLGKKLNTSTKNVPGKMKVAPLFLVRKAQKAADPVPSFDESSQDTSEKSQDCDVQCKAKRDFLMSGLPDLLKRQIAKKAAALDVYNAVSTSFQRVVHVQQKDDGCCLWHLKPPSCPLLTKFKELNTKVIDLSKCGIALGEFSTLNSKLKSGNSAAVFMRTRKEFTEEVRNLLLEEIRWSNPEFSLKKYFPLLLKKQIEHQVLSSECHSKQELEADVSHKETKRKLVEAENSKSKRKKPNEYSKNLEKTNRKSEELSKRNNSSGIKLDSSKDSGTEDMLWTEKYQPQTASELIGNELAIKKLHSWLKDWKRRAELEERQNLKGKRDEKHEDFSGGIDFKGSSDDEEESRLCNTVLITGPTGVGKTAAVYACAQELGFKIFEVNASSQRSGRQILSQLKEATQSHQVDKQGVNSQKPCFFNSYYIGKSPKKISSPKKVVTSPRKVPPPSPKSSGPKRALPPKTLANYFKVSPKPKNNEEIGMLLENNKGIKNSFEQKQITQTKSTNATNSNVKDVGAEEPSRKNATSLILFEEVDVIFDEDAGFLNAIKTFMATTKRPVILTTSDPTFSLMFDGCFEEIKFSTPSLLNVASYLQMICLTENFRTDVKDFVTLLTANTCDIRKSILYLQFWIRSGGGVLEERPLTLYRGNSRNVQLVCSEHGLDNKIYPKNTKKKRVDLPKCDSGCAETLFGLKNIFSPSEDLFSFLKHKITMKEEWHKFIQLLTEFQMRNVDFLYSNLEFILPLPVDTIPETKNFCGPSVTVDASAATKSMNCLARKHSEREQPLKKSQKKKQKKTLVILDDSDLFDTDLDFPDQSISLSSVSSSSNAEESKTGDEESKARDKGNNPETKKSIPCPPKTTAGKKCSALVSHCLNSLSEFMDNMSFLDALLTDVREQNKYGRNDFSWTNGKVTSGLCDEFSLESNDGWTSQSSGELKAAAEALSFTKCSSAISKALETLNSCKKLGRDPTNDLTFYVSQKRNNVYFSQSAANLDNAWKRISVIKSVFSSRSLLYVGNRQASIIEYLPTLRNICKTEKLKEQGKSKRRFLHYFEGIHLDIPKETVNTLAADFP
Procedure, shortened: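 Cells carrying luciferase-tagged ELG1 receive compound and DNA-damaging MMS (final concentration 10 µM) roughly five hours after seeding. Sixteen hours on, Amplight detects luciferase, and activity loss marks blocked ELG1 function.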

[2] = qHTS screen for small molecules that inhibit ELG1-dependent DNA repair: Hit Confirmation with 5FU Viability (AID 624250); also: potency is read from the fitted curve at half-maximal effect;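 also: viability measured 16 h after compound addition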
Procedure, shortened: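 After 16 h incubation with test compounds and 10 µM final 5-fluorouridine, ELG1-luc HEK293T cell viability is read using CellTiter-Glo.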

[3] = qHTS screen for small molecules that inhibit ELG1-dependent DNA repair: Hit Confirmation with MMS Viability (AID 624251); also: nearly all actives have a fitted effect of over 60% in size; also: potency is read from the fitted curve at half-maximal effect
Procedure, shortened: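 CellTiter-Glo viability of ELG1-luc HEK293T cells after 16 h with compound plus 10 µM MMS.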

[4] = target: Luciferin 4-monooxygenase (Photinus pyralis) (UniProt P08659); test: qHTS screen for small molecules that inhibit ELG1-dependent DNA repair: Hit Confirmation in Biochemical Luciferin Assay (AID 624253); also: potency is read from the fitted curve at half-maximal effect
Procedure, shortened: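 Steps: (1) dispense substrate reagent; (2) pin-transfer test compounds or DMSO vehicle; (3) add luciferase; (4) image luminescence with a CCD reader.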

[5] = target: Cytochrome P450 2C9 (Homo sapiens) (UniProt P11712); test: qHTS Assay for Inhibitors and Substrates of Cytochrome P450 2C9 (AID 883); conditions: recombinant CYP2C9, luciferin-H luminescence, 60 min; activity change, negative = inhibition: at 11.4 µM (top of the series) unless noted; also: potency is read from the fitted curve at half-maximal effect; nearly all actives have a fitted effect of over 60% in size
Sequence of UniProt P11712 (P11712 whole entry, looked up): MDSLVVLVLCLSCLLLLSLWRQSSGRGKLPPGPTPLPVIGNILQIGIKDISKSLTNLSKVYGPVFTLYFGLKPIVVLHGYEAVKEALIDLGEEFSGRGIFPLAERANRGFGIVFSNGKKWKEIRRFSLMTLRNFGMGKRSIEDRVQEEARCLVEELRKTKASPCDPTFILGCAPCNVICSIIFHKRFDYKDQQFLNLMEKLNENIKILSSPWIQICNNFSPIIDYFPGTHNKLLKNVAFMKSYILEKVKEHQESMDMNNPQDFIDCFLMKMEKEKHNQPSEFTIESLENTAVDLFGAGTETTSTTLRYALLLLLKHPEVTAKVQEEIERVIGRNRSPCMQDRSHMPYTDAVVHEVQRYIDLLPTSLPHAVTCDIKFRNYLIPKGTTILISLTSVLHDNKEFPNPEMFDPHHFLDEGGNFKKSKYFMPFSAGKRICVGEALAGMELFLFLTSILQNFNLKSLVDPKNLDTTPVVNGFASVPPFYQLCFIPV
Procedure, shortened: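 Signal: luciferase luminescence reporting luciferin produced by CYP2C9. Conditions: 10nM enzyme, Luciferin-H 100uM at KM, 25mM KPO4, 37C, 60 min NADPH-driven reaction. Reference: 57uM sulphaphenazole as 100% inhibition.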

[6] = qHTS Assay for Identification of Small Molecule Agonists for Hypoxia Response Element Signaling Pathway (AID 914; active = well fitted activation curve with a large enough effect in the signal ratio, with a control signal flat, not every such curve was filed as active; inconclusive = small, poorly fitted or top-dose-only effect, or effect the other way, or a change in a side signal; the % refers to the signal ratio; also: top concentration of the series differs between compounds; % of control where 0% means no effect); conditions: ME-180 (cervical carcinoma) HRE-bla reporter, beta-lactamase ratio, CoCl2, 17 h; activation: active compounds read high
Procedure, shortened: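 Reporter activity (beta-lactamase, CCF4 460nm/530nm ratio) in HRE-bla ME-180 cells is recorded after 17 h compound exposure with EC50 CoCl2 at 37 degrees Celsius. AC50 values come from titration data.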
Tags tell the direction and shape of the fitted curve.

SMILES	Potency [1]	Potency [2]	Potency [3]	Potency [4]	Potency [5]	activation [6]
COc1ccc(-c2nc3c(c(SCC(=O)N4CCOCC4)n2)Cc2c(CO)cnc(C)c2O3)cc1	inconclusive [inhibitor, partial curve]	inactive	inactive	–	–	–
COc1ccccc1NC(=O)c1cc2c(CO)cnc(C)c2oc1=Nc1ccc(OC)c(OC)c1	inconclusive [inhibitor, partial curve, poor fit]	inconclusive [rising, full curve]	inconclusive [cytotoxic, single point]	–	–	–
COc1cccc(C(=O)N/N=c2\oc3c(OC)cccc3cc2C(=O)NCc2ccccc2)c1	inconclusive [inhibitor, full curve, poor fit]	inconclusive [rising, full curve, poor fit]	inactive	–	–	–
COc1cc(-c2noc(C)c2/C=C/c2cccc([N+](=O)[O-])c2)cc(OC)c1OC	active: 7.05 µM	inconclusive [rising, partial curve]	inconclusive [cytotoxic, partial curve]	–	–	–
C[C@H](CO)N1C[C@H](C)[C@@H](CN(C)C(=O)Nc2ccc(C(F)(F)F)cc2)Oc2c(NC(=O)Nc3ccc4c(c3)OCO4)cccc2C1=O	inactive	inconclusive [rising, full curve]	–	inconclusive [inhibitor, partial curve]	–	–
COc1ccccc1/C=C(\NC(=O)c1ccc(OC)c(OC)c1)C(=O)Nc1cc([N+](=O)[O-])ccc1C	inconclusive [inhibitor, partial curve, poor fit]	inconclusive [rising, full curve]	inconclusive [rising, full curve, poor fit]	–	–	–
CCN(CC)C(=O)c1sc2nc(N3CCOCC3)c3c(c2c1N)CCCC3	inactive	inconclusive [cytotoxic, single point]	inactive	–	–	–
COc1cccc(-c2cncnc2NCCc2cnc[nH]2)c1	inconclusive [inhibitor, full curve]	inactive	–	–	active: 0.251 µM	inconclusive: -42.9%
COC(=O)c1ccccc1NC(=O)C1CCN(c2ncnc3c2nc2n3CCCCC2)CC1	inconclusive [inhibitor, partial curve, poor fit]	inconclusive [rising, full curve, poor fit]	–	inactive	–	–
COc1cc(-c2cc(C(F)(F)F)n3ncc(C(=O)O)c3n2)cc(OC)c1OC	inactive	inconclusive [rising, partial curve]	inconclusive [rising, full curve]	–	–	inactive: 13.9%
CC(C)c1nc2sc3c(NCc4ccco4)ncnc3c2c2c1COC(C)(C)C2	inactive	inconclusive [rising, partial curve, poor fit]	inactive	–	–	–
O=C(COC(=O)C1CC2C=CC1C2)Nc1c(Br)cc([N+](=O)[O-])cc1Br (stereo unspecified)	inactive	inconclusive [rising, full curve, poor fit]	inconclusive [cytotoxic, partial curve, poor fit]	–	–	–
COc1ccccc1-c1nc2c(c(SCC(=O)N3CCCCC3)n1)Cc1c(CO)cnc(C)c1O2	inconclusive [inhibitor, single point]	inconclusive [cytotoxic, partial curve]	inconclusive [cytotoxic, single point]	–	–	–
Cc1ccc(Nc2nc(N3CCOCC3)nc(N3CCOCC3)n2)cc1Cl	inconclusive [inhibitor, partial curve, poor fit]	inconclusive [rising, full curve]	inactive	–	–	–
Cc1ccc2c(c1)nnn2C1CCN(S(=O)(=O)c2ccc(C(=O)NC3CCCC3)cc2)CC1	inconclusive [inhibitor, partial curve]	inconclusive [rising, full curve]	inconclusive [cytotoxic, partial curve, poor fit]	–	–	–
CCOCCCNC(=O)c1ccc2nc(-c3ccc(OC)c(OC)c3)c(-c3ccc(OC)c(OC)c3)nc2c1	inconclusive [inhibitor, partial curve, poor fit]	inconclusive [rising, full curve, poor fit]	inconclusive [cytotoxic, partial curve, poor fit]	–	–	–
CCOc1ccc(-c2[nH]ncc2-c2ccc(OC)c(OC)c2)c(O)c1	inconclusive [inhibitor, full curve]	inactive	inconclusive [cytotoxic, full curve]	–	–	–

SMILES	Potency [1]	Potency [2]	Potency [3]	Potency [4]	Potency [5]	activation [6]
Cc1ccc([N+](=O)[O-])cc1Nc1nc(N2CCOCC2)nc(N2CCOCC2)n1	inconclusive [inhibitor, partial curve, poor fit]	inconclusive [rising, single point]	inconclusive [cytotoxic, partial curve, poor fit]	–	–	–
Cn1c(=O)c2[nH]c(CN(Cc3ccccc3)Cc3ccccc3)nc2n(C)c1=O	inconclusive [inhibitor, full curve]	inactive	inconclusive [cytotoxic, partial curve, poor fit]	–	–	–
Cc1nn(-c2ccc(C(=O)N3CCN(S(=O)(=O)c4ccccc4C(F)(F)F)CC3)cc2)c(C)c1Cl	inconclusive [inhibitor, single point]	inconclusive [rising, partial curve]	inconclusive [cytotoxic, partial curve]	–	–	–
CCCc1cc(=O)oc2cc(OCC(=O)N3CCN(C(=O)C4COc5ccccc5O4)CC3)ccc12 (stereo unspecified)	inconclusive [inhibitor, single point]	inconclusive [rising, partial curve]	inactive	–	–	–
COc1ccc(CSc2nc(N3CCOCC3)c3c(c2C#N)CC(C)(C)OC3)cc1	inactive	–	inactive	–	–	–
COc1ccc(-c2cc(C(F)(F)F)n3ncc(C(=O)NCc4ccco4)c3n2)cc1	inconclusive [inhibitor, partial curve, poor fit]	inconclusive [rising, full curve, poor fit]	inactive	–	–	–
COc1ccc2c(c1)c(CC(=O)Nc1ccccc1OC)c(C)n2C(=O)c1ccc(Cl)cc1	inconclusive [inhibitor, single point]	inconclusive [rising, partial curve, poor fit]	inconclusive [cytotoxic, single point]	inactive	–	–
CCOC(=O)N1CCN(C(=O)c2ccc3c(c2)N=C(C)c2cc(Cl)ccc2S3)CC1	inconclusive [inhibitor, partial curve]	inconclusive [rising, partial curve]	inconclusive [cytotoxic, partial curve]	–	–	–
C[C@H](CO)N1C[C@H](C)[C@@H](CN(C)C(=O)Nc2ccc(C(F)(F)F)cc2)Oc2c(NC(=O)Nc3ccccc3)cccc2C1=O	inactive	inconclusive [rising, full curve]	–	inconclusive [inhibitor, partial curve, poor fit]	–	–
CCC(C)NC(=O)c1ccc2nc(-c3ccc(OC)c(OC)c3)c(-c3ccc(OC)c(OC)c3)nc2c1 (stereo unspecified)	inactive	inconclusive [rising, full curve]	inactive	–	–	–
COCC(C)OC(=O)c1c(N)n(CC(C)C)c2nc3ccccc3nc12 (stereo unspecified)	inactive	inconclusive [rising, full curve]	inactive	–	–	–
CCn1cc(C(=O)Nc2ccc3c(c2)OCCO3)c2cc(OC)c(OC)cc2c1=O	inconclusive [inhibitor, single point]	inconclusive [rising, full curve, poor fit]	inconclusive [cytotoxic, single point]	–	–	–
COc1ccc(-c2nn(-c3ccccc3)cc2/C=C/C(=O)N2CCOCC2)cc1OC	inactive	inconclusive [rising, full curve]	inactive	–	–	–
O=C(/C=C\c1cn(-c2ccccc2)nc1-c1ccc2c(c1)OCCO2)N1CCOCC1	inconclusive [inhibitor, partial curve]	inconclusive [rising, full curve]	inconclusive [rising, partial curve, poor fit]	–	–	–
COc1ccc(CCNC(=S)NC(=O)c2cc(OC)c(OC)c(OC)c2)cc1OC	inactive	inconclusive [rising, full curve]	inactive	–	–	–
Cc1cc(=O)oc2cc(OCC(=O)N3CCN(C(=O)C4COc5ccccc5O4)CC3)ccc12 (stereo unspecified)	inconclusive [inhibitor, partial curve]	inconclusive [rising, full curve]	inconclusive [rising, partial curve, poor fit]	–	–	–
